Reference: patent US20040071656A1 (published 2004)

Experiments:
[1] = molecular target: T1, Recombinant human His6-tagged Hsp70 (human, UniProt P0DMV8); experiment: glutathione-Sepharose pull-down of recombinant His6-Hsp70, anti-His immunoblot
T1 construct: mature; also called His6-Hsp70; human Hsp70
Method: For comparison of CD40 binding of Hsp70 and its N-terminal domain, Hsp70 was preincubated in the presence or absence (mock treatment) of a 30-fold molar excess of peptide C. 3 μM of GST or GST-CD40 was added to the samples and incubated for 20 min at 16° C. For titration of peptide C, 5- to 50-fold excess of peptide C (15-150 μM) was added to the preincubation of Hsp70. Thereafter the samples were combined with 20 μl of 1% BSA-treated Glutathione Sepharose 4 Fast Flow and incubated in the presence of 2 mM DTT for another 20 min at 16° C. Unbound proteins were removed by washing the beads three times with 1 ml PBS, and immobilized proteins eluted with 30 μl elution buffer for 20 min at 22° C. 10 μl of the eluates were subjected to SDS-PAGE and analyzed by immunoblotting using a Penta-His-antibody (Quiagen). Blot signals were quantified by Quantity One (Biorad).
Details for FIG. 3. Binding of Hsp70 to CD40 is direct and depends on ADP. […] Thereafter samples were affinity purified on glutathione-Sepharose as outlined in Experimental Procedures, subjected to SDS-PAGE and analyzed by immunoblotting with antibodies directed against Hsc70 and Hsp70 (upper lanes), and against Hsp90 (lower lanes). […] After affinity purification samples were analyzed by immunoblotting as described in A, using antibodies directed against the His6-tag. […]

[2] = molecular target: T2, Endogenous Hsc70 from Hela cell lysate (UniProt P11142); experiment: GST pull-down from Hela cell lysate, anti-Hsc/Hsp70 immunoblot
T2 construct: mature; Detected with anti-Hsc/Hsp70 antibody SPA822
T2 sequence (P11142 2-646 limits assumed): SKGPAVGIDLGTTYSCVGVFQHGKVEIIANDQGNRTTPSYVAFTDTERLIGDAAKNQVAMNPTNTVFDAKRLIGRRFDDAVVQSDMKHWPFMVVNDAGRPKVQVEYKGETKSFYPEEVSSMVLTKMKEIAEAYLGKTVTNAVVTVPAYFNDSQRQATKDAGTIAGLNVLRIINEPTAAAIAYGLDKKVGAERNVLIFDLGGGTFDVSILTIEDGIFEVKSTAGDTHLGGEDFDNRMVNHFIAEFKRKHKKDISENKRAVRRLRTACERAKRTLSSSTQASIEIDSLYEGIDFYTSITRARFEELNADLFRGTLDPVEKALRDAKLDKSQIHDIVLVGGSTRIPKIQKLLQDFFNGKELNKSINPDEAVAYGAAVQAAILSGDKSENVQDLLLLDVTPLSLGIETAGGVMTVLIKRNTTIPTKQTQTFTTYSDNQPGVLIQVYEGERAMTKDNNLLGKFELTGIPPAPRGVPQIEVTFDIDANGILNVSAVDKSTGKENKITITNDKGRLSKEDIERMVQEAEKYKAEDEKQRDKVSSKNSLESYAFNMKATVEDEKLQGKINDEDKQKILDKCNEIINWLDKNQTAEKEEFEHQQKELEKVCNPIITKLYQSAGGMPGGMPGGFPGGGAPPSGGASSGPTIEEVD
Method: (§1) Binding assays with GST-CD40. For binding of endogenous Hsp70 and Hsc70 from Hela cell lysate, Hela cells were lysed as described above and centrifuged at 100,000 g at 4° C. for 1 h. 20 μl bed volume of Glutathione Sepharose 4 Fast Flow (Amersham Pharmacia) per sample were preincubated with 80 pmol or 400 pmol of GST or GST-CD40 fusion protein in 50 μl binding buffer. Unbound protein was removed by washing three times with PBS. The beads were treated with 1% BSA/PBS to avoid non-specific binding, and than incubated with 150 μl of Hela cell lysate in the presence of 2 mM DTT for 20 min at 16° C. […] 10 μl of the eluates was subjected to SDS-PAGE and analyzed by immunoblotting using an anti-Hsc/Hsp70 antibody and an anti-Hsp90: antibody (SPA822 and SPA835, Stressgen).
(§2) Details for FIG. 3. […] Thereafter samples were affinity purified on glutathione-Sepharose as outlined in Experimental Procedures, subjected to SDS-PAGE and analyzed by immunoblotting with antibodies directed against Hsc70 and Hsp70 (upper lanes), and against Hsp90 (lower lanes). […] After affinity purification samples were analyzed by immunoblotting as described in A, using antibodies directed against the His6-tag. […] Protein bound to Hsp70 was analyzed by affinity purification on Ni-NTA-agarose and immunoblotting with antibodies directed against CD40.

[3] = molecular target: T3, Endogenous Hsp70 from Hela cell lysate (UniProt P0DMV8); experiment: as above
T3 construct: mature; Detected with anti-Hsc/Hsp70 antibody SPA822
Method: as §1, §2

- binding result [1]: no binding (tested: 3 µM)
- binding result [2]: no binding
- binding result [3]: no binding
B1: GST (recombinant, purified by glutathione affinity chromatography) (enzyme)
chain: not shown
notes: Negative control in the pull-down assays; also called GST alone; GST (control)
